Several values for one entry are separate records, joined by “and”; a condition that tells them apart may be missing. Equal entries are not always repeated. The whole screen tested about 16,000 compounds, of which about 40 (0.2%) were called active. Inconclusive results (about 1%) are left out. The call rests on the fitted dose curve; in most records, active means well fitted activation curve with a large enough effect; inconclusive means small, poorly fitted or top-dose-only effect, or another doubt; inactive means no such curve, though single readings can be large or run the other way. Some of the results follow.
On the % scale 0 is the no-effect control and ±100 the full control effect.

The assay has as its target Rap guanine nucleotide exchange factor 4 (Homo sapiens) (UniProt Q8WZA2). In words: Validation qHTS for agonist of cAMP-regulated guanine nucleotide exchange factor 4 (EPAC2).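 Further: exchange makes BODIPY-GDP fluorescence drop when released from Rap1B; series mostly up to about 150 µM.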 The note with it: EPAC2 Rap1B BODIPY-GDP exchange, fluorescence; activation: hits give high values. Summed up: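 Signal normalized against 6.5 mM cAMP as agonist control. Mix of EPAC2 (100 nM), RAP1B-BODIPY-GDP (250 nM) and GDP (50 uM) was read kinetically at 480/540 nm, every 5 min over 30 min, after 5 min room-temperature incubation with compound.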
Chain of UniProt Q8WZA2 (Q8WZA2 whole entry, looked up): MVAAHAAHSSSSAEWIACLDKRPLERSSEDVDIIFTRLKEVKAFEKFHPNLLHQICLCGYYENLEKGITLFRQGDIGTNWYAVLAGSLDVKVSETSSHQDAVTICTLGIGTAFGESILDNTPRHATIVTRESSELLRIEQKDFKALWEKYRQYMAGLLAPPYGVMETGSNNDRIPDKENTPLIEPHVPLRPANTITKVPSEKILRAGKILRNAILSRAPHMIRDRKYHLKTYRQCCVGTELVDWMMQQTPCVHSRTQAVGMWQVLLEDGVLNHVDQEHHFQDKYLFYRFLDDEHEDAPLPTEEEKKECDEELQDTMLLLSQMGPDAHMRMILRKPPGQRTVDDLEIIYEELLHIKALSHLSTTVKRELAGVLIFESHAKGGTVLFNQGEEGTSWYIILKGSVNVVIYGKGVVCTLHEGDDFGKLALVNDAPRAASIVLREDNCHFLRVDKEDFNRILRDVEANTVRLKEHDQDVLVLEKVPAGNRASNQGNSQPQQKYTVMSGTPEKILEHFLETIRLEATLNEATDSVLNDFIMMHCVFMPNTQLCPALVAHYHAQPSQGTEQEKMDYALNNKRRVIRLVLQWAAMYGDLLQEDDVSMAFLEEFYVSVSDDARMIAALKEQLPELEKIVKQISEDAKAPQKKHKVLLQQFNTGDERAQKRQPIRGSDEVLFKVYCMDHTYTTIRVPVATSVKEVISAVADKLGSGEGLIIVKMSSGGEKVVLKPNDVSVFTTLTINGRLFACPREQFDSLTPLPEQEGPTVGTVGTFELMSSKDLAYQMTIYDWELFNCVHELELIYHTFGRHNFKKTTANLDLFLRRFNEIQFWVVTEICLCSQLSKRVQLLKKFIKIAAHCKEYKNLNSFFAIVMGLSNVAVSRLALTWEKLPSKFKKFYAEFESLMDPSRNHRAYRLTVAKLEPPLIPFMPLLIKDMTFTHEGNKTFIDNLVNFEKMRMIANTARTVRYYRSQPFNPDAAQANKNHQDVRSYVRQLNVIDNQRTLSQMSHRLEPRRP
On the technique in general: In qHTS, concentration-response curves come from the screen itself.
On to `CCCCC/C=C\C/C=C\CCCCCCCC(=O)NCC(=O)O`, for which the activation is inactive: -6.85%.
The same measure for `CS(=O)(=O)Nc1cccc(-c2nc(N3CCNCC3)c3ccccc3n2)c1`: inactive: 2.43%.
The same measure for `C=CCSc1nnc(C2CCCN(Cc3ccccc3O)C2)n1C` (stereo unspecified): inactive: 0.346%; for `COc1cccc(C2(CC(=O)N3CCCCC3CO)CC(=O)N(C)C2=O)c1` (stereo unspecified): inactive: -12.4%; for `COc1ccccc1-c1ccc(C(=O)N(C)CC2COCCO2)c(N2CCN(c3ccccc3F)CC2)n1` (stereo unspecified): inactive: 4.59%.
With `CC(=O)N1CCC2(CC1)CN(c1ccccc1)C2` the figure was inactive: -4.55%; with `COc1ccccc1-c1cncnc1NCCNC(C)=O`, inactive: -4.49%.
On to `O=C(Oc1ccccc1)N1CCC2(CCCN(c3ccccc3)C2)CC1`, for which the activation was inactive: 8.8%.
The same measure for `CN(Cc1ccco1)c1ccnc(-c2cccc(C#N)c2)n1`: inactive: 1.43%.
With `NCCN` the figure was inactive: -4.09%; with `CCN(CC)CCOC(=O)c1ccc(N)cc1`, inactive: -2.73% and inactive: -9.89% and inactive: -3.31%.
With `COc1ccc(/C=c2\[nH]c(=O)/c(=C/c3ccc(OC)cc3)[nH]c2=O)cc1` the figure was inactive: -19.2%.
Take `COc1ccccc1-c1ccc2ncnc(N3CCNCC3)c2c1`: the activation is inactive: -6.93%.
With `Cc1noc(C)c1-c1ccc2ncnc(NCCN3CCOCC3)c2c1` the figure was inactive: -9.97%.
For `Cn1ccnc1`, the activation was inactive: -39.6%.
In the case of `Cc1cccc(C)c1NC(=O)CN(CC(=O)O)CC(=O)O`, the activation is inactive: -5.17%.
As for `CN1CCN(c2ncc3nc(-c4cn(C)c5ccccc45)c(=O)n(C[C@H]4CCCO4)c3n2)CC1`, the activation is inactive: -6.33%.
With `Cc1cnc(CNc2ncnc3ccc(-c4ccccc4C)cc23)cn1` the figure was inactive: -6.63%.
The same measure for `CC1(c2ccccc2)OC(C(=O)O)=CC1=O` (stereo unspecified): inactive: -20.8%.
The same measure for `CC(NC(=O)c1cc(F)ccc1F)c1nnc2n1CCN(Cc1ccc(-c3ccccc3)cc1)CC2` (stereo unspecified): inactive: -20.6%; for `N#Cc1ccc[n+](CC(=O)c2ccc(F)cc2)c1`: inactive: -11.3%; for `CCOC(=O)c1c(C)cc(O)c(C=O)c1O`: inactive: -18.1%.
Consider `O=C(O)C[C@@H]1NC(=O)[C@H](Cc2ccccc2)NC1=O`, for which the activation is inactive: 1.13%.
The same measure for `O=C(c1ccco1)N1CCC2(CCCN(c3cccc(-c4ccccc4)c3)C2)CC1`: inactive: 15.1%; for `CCCCCCCCCCCCCCCC(=O)OCC(COP(=O)(O)O)OC(=O)CCCCCCCCCCCCCCC` (stereo unspecified): inactive: -1.07%.
With `OC(c1ccc2c(c1)CN(Cc1c[nH]c3ccccc13)CCO2)c1ccccn1` (stereo unspecified) the figure was inactive: -2.92%; with `CN(C)C(=O)c1ccc(-c2nc(Nc3ccccc3)c3ccccc3n2)cc1`, inactive: -27.2%; with `CC(C)[C@@H]1C(=O)N(S(C)(=O)=O)[C@H]2CCN(C(=O)/C=C\CN3CCCCC3)[C@@H]12`, inactive: -20.2%.
Turning to `COc1ccc(F)c(CN2CCOc3ccc(CN4CCCCC4CO)cc3C2)c1` (stereo unspecified), the activation is inactive: 2.4%.
The same measure for `CC(=O)N1CCC2(CCN(Cc3nccs3)CC2)CC1`: inactive: -7.85%; for `COc1cccc(Cn2c(=O)c(C)nc3cnc(Oc4ccccc4)nc32)c1`: inactive: 9.31%.
On to `CC[C@H](C)C(=O)O[C@H]1C[C@@H](C)C=C2C=C[C@H](C)[C@H](CC[C@@H]3C[C@@H](O)CC(=O)O3)[C@H]21`, for which the activation was inactive: -51.1% and inactive: -9.54%.
Consider `CC(C)CN1CCCC2(CCN(S(=O)(=O)c3ccccc3)CC2)C1`, for which the activation is inactive: -6.72%.
With `COc1ccccc1C(=O)N(Cc1cc2cc3c(cc2nc1N(C)C)OCO3)CC1CCCO1` (stereo unspecified) the figure was inactive: -2.77%; with `CCOC(=O)C[C@H]1c2cc(F)ccc2S(=O)(=O)N1c1ccccc1`, inactive: -15.4%; with `Cc1c(CCO)sc[n+]1CCc1ccccc1`, inactive: -25.9%.
With `CN(C)c1ncc2nc(-c3ccc(F)cc3)c(=O)n(C3CC3)c2n1` the figure was inactive: -23%; with `CC(C)CCCC(C)C1CCC2C3CC[C@H]4CC(=O)CC[C@@]4(C)C3CC[C@@]12C` (stereo partly specified), inactive: -12.9%; with `C1=CC2C3C=CC(C3)C2C1` (stereo unspecified), inactive: -15.1%.
With `Fc1ccc(/C=C/c2ccc3ccccc3n2)cc1` the figure was inactive: -4.16%; with `CCCCCCCCN1[C@@H](CC(=O)O)c2ccc(/C=C/C(=O)O)cc2S1(=O)=O`, inactive: -5.07%.
With `O=c1cc(-c2ccccc2)oc2cc(O)c(O)c(O)c12`, the activation is inactive: -17.2% and inactive: -14.2% and inactive: 2.43%.
With `COc1ccc(-c2oc3cc(OC)ccc3c(=O)c2O)cc1` the figure was inactive: 0.775%; with `CC(NC(=O)c1ccco1)c1nnc2n1CCN(Cc1ccc(Cl)cc1)CC2` (stereo unspecified), inactive: -6.18%.
With `CC(C)CCCC(C)N` (stereo unspecified) the figure was inactive: -16.9%; with `COc1ccc2c(c1)-c1nc(-n3ncc(C(=O)N(C)CC4CCCN(C)C4)c3C)ncc1CC2` (stereo unspecified), inactive: -16.8%.
The same measure for `CNC(C)C1CC[C@H](N)[C@@H](OC2C(N)C[C@H](N)[C@@H](OC3OC[C@](C)(O)C(NC)[C@H]3O)C2O)O1` (stereo partly specified): inactive: -18.5%; for `CC1CN(CC(=O)NCCC2COc3ccccc3O2)Cc2cc(Cl)ccc2O1` (stereo unspecified): inactive: 8.09%; for `CN(C)CCn1nnnc1SCC1=C(C(=O)O)N2C(=O)[C@@H](NC(=O)Cc3csc(N)n3)[C@H]2SC1`: inactive: -10%.
In the case of `N[C@@H](CCCC(=O)O)C(=O)O`, the activation is inactive: 7.12%.
With `CC(C)CCCC(C)C1CCC2C3C(=O)C=C4CC(O)CC[C@@]4(C)C3CC[C@@]12C` (stereo partly specified), the activation is inactive: -16%.
The same measure for `CS(=O)(=O)N1CCC[C@@]2(CCN(c3ccccn3)C2)C1`: inactive: -17.6%.
On to `O=C(Nc1cccc(F)c1)N1CCC2(CC1)CCN(S(=O)(=O)c1ccccc1)CC2`, for which the activation is inactive: -23.6%.
Take `COC(=O)C[C@H]1c2cc(F)ccc2S(=O)(=O)N1c1ccccc1`: the activation is inactive: -18.7%.
The same measure for `O=c1[nH]c2cc(C(F)(F)F)ccc2n1-c1cc(C(F)(F)F)ccc1O`: inactive: -13.7% and inactive: -61.4%; for `O=C(c1ccncc1)N1CCC2(CCN(Cc3nccs3)CC2)CC1`: inactive: 8.91%.
The same measure for `COc1ccc(-n2c(=O)c(-c3ccccc3)nc3cnc(N4CCOCC4)nc32)cc1`: inactive: -10.3%.
The same measure for `CN1CCCC(CNC(=O)c2cnn(-c3nccc(-c4cccs4)n3)c2C2CC2)C1` (stereo unspecified): inactive: -5.36%; for `OC(c1cccnc1)c1ccc2c(c1)CN(Cc1cccc3c1OCO3)CCO2` (stereo unspecified): inactive: 2.08%.
As for `CCC1COCCS(=O)(=O)N1Cc1cccc(Cl)c1` (stereo unspecified), the activation is inactive: -36.6%.
For `O=C(c1ccco1)N1CCC2(CC1)CN(c1ncccn1)C2`, the activation was inactive: 0.981%.
As for `COc1ccc(CNc2ncncc2-c2ccoc2)c(OC)c1`, the activation was inactive: -19.3%.
The same measure for `COc1cc(-c2cccc(OC)c2OC)cc2c1OCCN(Cc1cn[nH]c1-c1ccc(Cl)cc1)C2`: inactive: 2.87%; for `NCc1ccccc1Sc1ccccc1CO`: inactive: 2.75%; for `CS(=O)(=O)Nc1cccc(-c2nc(NCc3cccnc3)c3ccccc3n2)c1`: inactive: -5.23%.
The same measure for `COc1ccc(C(=O)NCc2nc(-c3cccc(NC(=O)c4ccc(C)s4)c3)oc2C)cc1`: inactive: 9.85%; for `CC(=O)N[C@@H](CS)C(=O)O`: inactive: -4.62% and inactive: 14.5%.
The same measure for `COCCNc1ncnc2ccc(-c3cccc(NS(C)(=O)=O)c3)cc12`: inactive: -21.3%; for `N[C@@H](Cc1cc(I)c(Oc2ccc(O)cc2)c(I)c1)C(=O)O`: inactive: 1.88%.
Turning to `Nc1c(NC/C=C\COc2cc(CN3CCCCC3)ccn2)c(=O)c1=O`, the activation was inactive: 11.4%.
With `CC(=O)O[C@H]1C[C@@]2(C)[C@@H](C[C@@H](O)[C@H]3[C@@]4(C)CC[C@@H](O)[C@@H](C)[C@@H]4CC[C@@]32C)/C1=C(\CCC=C(C)C)C(=O)O` the figure was inactive: -7.02%.
The same measure for `FC(F)(F)c1ccccc1-c1nc(NC2CC2)c2ccccc2n1`: inactive: -12.5%; for `CN(C)c1ncc2nc(CCc3ccccc3)c(=O)n(CCc3ccccc3)c2n1`: inactive: -8.28%; for `N#Cc1ccc(CN2CCCC3(CCN(C(=O)c4ccco4)CC3)C2)cc1`: inactive: -3.5%.
The same measure for `COc1ccc(-c2nc3cc(C)ccc3cc2CN(C(=O)c2cccs2)C2CC2)cc1OC`: inactive: 6.87%; for `O=c1cc(-c2ccccc2)[nH]c2nc(Cl)ccc12`: inactive: -28.3%.
In the case of `O=c1[nH]c(=O)c2nc3ccccc3nc2[nH]1`, the activation is inactive: 8.09%.
Take `N#Cc1cccc(NC(=O)N2CC[C@@]3(CCCN(C(=O)c4cc(C(F)(F)F)cc(C(F)(F)F)c4)C3)C2)c1`: the activation is inactive: -21.7%.
With `N#C/C(=C\c1ccc(O)c(O)c1)C(=O)NCCc1ccccc1` the figure was inactive: -39.6%; with `Cn1c(C2CCC2)nc2cc(C(=O)N3CCOc4ccccc4C3)cc(NC(=O)C3CCCO3)c21` (stereo unspecified), inactive: -1.67%; with `O=C(Nc1ccccc1)[C@@H]1CC=C[C@@H]2CCN(C3CC3)C(=O)[C@@H]21`, inactive: -25%.
On to `O=C(c1ccc2c(c1)OCO2)N(Cc1cc2ccc(F)cc2nc1N1CCC(O)CC1)CC1CCCO1` (stereo unspecified), for which the activation was inactive: 1.41%.
With `CCCCC(=O)OCC(=O)[C@]1(O)Cc2c(O)c3c(c(O)c2[C@@H](O[C@H]2C[C@H](NC(=O)C(F)(F)F)[C@H](O)[C@H](C)O2)C1)C(=O)c1c(OC)cccc1C3=O` the figure was inactive: -1%.
With `N#Cc1ccc(CN2CC[C@@]3(CCCN(S(=O)(=O)c4ccccc4)C3)C2)cc1` the figure was inactive: 3.9%.
Take `CCC(=O)OC(OP(=O)(CCCCc1ccccc1)CC(=O)N1C[C@H](C2CCCCC2)C[C@H]1C(=O)O)C(C)C` (stereo partly specified): the activation was inactive: -17.1%.
The same measure for `Clc1ccc2c(c1)N=C(N1CCNCC1)c1ccccc1N2`: inactive: -13.9% and inactive: -1.77% and inactive: -33.6%.

The record behind these values is PubChem BioAssay AID1645887 (National Center for Advancing Translational Sciences (NCATS), 2021).
